Values belong to the binder of their own block, whether it stands above or below them.
Assays:
recombinant human TNFα = recombinant human TNFα (human, UniProt P01375 part only); assay: cell-based or functional assay
[1] = biological target: T1, recombinant human TNFα (CytoLab) (human, UniProt P01375 part only); assay: ELISA on coated human TNFα
T1 construct: coated on the ELISA plate at 1 µg/ml; also called Tumour necrosis factor alpha

Standardized EC50, L929 neutralization assay (5-point) (recombinant human TNFα): 0.957 µg/mL
B1: TNFα dAb Fc variant R18K (Fc fusion, name in Kabat numbering)
chain: DIQMTQSPSSLSASVGDKVTITCRASQAIDSYLHWYQQKPGKAPKLLIYSASNLETGVPSRFSGSGSGTDFTLTISSLLPEDFATYYCQQVVWRPFTFGQGTKVEIKRV[human IgG1 Fc with changes left out]

Standardized EC50, L929 neutralization assay (5-point) (recombinant human TNFα): 2.02 µg/mL
B2: TNFα dAb Fc variant T20Q (Fc fusion, name in Kabat numbering)
chain: DIQMTQSPSSLSASVGDRVQITCRASQAIDSYLHWYQQKPGKAPKLLIYSASNLETGVPSRFSGSGSGTDFTLTISSLLPEDFATYYCQQVVWRPFTFGQGTKVEIKRV[human IgG1 Fc with changes left out]

Standardized EC50, L929 neutralization assay (5-point) (recombinant human TNFα): 2.51 µg/mL
B3: TNFα dAb Fc variant T22L (Fc fusion, name in Kabat numbering)
chain: DIQMTQSPSSLSASVGDRVTILCRASQAIDSYLHWYQQKPGKAPKLLIYSASNLETGVPSRFSGSGSGTDFTLTISSLLPEDFATYYCQQVVWRPFTFGQGTKVEIKRV[human IgG1 Fc with changes left out]

Standardized EC50, L929 neutralization assay (5-point) (recombinant human TNFα): 2.4 µg/mL
B4: TNFα dAb Fc variant I21L (Fc fusion, name in Kabat numbering)
chain: DIQMTQSPSSLSASVGDRVTLTCRASQAIDSYLHWYQQKPGKAPKLLIYSASNLETGVPSRFSGSGSGTDFTLTISSLLPEDFATYYCQQVVWRPFTFGQGTKVEIKRV[human IgG1 Fc with changes left out]

Standardized EC50, L929 neutralization assay (5-point) (recombinant human TNFα): 1.23 µg/mL
B5: TNFα dAb Fc variant I2A (Fc fusion, name in Kabat numbering)
chain: DAQMTQSPSSLSASVGDRVTITCRASQAIDSYLHWYQQKPGKAPKLLIYSASNLETGVPSRFSGSGSGTDFTLTISSLLPEDFATYYCQQVVWRPFTFGQGTKVEIKRV[human IgG1 Fc with changes left out]

Standardized EC50, L929 neutralization assay (5-point) (recombinant human TNFα): 0.833 µg/mL
B6: TNFα dAb Fc variant D1K (Fc fusion, name in Kabat numbering)
chain: KIQMTQSPSSLSASVGDRVTITCRASQAIDSYLHWYQQKPGKAPKLLIYSASNLETGVPSRFSGSGSGTDFTLTISSLLPEDFATYYCQQVVWRPFTFGQGTKVEIKRV[human IgG1 Fc with changes left out]

Standardized EC50, L929 neutralization assay (5-point) (recombinant human TNFα): 4.38 µg/mL
B7: TNFα dAb Fc variant T20K (Fc fusion, name in Kabat numbering)
chain: DIQMTQSPSSLSASVGDRVKITCRASQAIDSYLHWYQQKPGKAPKLLIYSASNLETGVPSRFSGSGSGTDFTLTISSLLPEDFATYYCQQVVWRPFTFGQGTKVEIKRV[human IgG1 Fc with changes left out]

Standardized EC50, L929 neutralization assay (5-point) (recombinant human TNFα): 6.04 µg/mL
B8: TNFα dAb Fc variant D1L (Fc fusion, name in Kabat numbering)
chain: LIQMTQSPSSLSASVGDRVTITCRASQAIDSYLHWYQQKPGKAPKLLIYSASNLETGVPSRFSGSGSGTDFTLTISSLLPEDFATYYCQQVVWRPFTFGQGTKVEIKRV[human IgG1 Fc with changes left out]

Standardized EC50, L929 neutralization assay (5-point) (recombinant human TNFα): 0.593 µg/mL
B9: TNFα dAb Fc variant I2L (Fc fusion, name in Kabat numbering)
chain: DLQMTQSPSSLSASVGDRVTITCRASQAIDSYLHWYQQKPGKAPKLLIYSASNLETGVPSRFSGSGSGTDFTLTISSLLPEDFATYYCQQVVWRPFTFGQGTKVEIKRV[human IgG1 Fc with changes left out]

Standardized EC50, L929 neutralization assay (5-point) (recombinant human TNFα): 0.676 µg/mL
B10: TNFα dAb Fc variant D1Y (Fc fusion, name in Kabat numbering)
chain: YIQMTQSPSSLSASVGDRVTITCRASQAIDSYLHWYQQKPGKAPKLLIYSASNLETGVPSRFSGSGSGTDFTLTISSLLPEDFATYYCQQVVWRPFTFGQGTKVEIKRV[human IgG1 Fc with changes left out]

Standardized EC50, L929 neutralization assay (5-point) (recombinant human TNFα): 1.86 µg/mL
B11: TNFα dAb Fc variant V19A (Fc fusion, name in Kabat numbering)
chain: DIQMTQSPSSLSASVGDRATITCRASQAIDSYLHWYQQKPGKAPKLLIYSASNLETGVPSRFSGSGSGTDFTLTISSLLPEDFATYYCQQVVWRPFTFGQGTKVEIKRV[human IgG1 Fc with changes left out]

Standardized EC50, L929 neutralization assay (5-point) (recombinant human TNFα): 1.6 µg/mL
B12: TNFα dAb Fc variant T20A (Fc fusion, name in Kabat numbering)
chain: DIQMTQSPSSLSASVGDRVAITCRASQAIDSYLHWYQQKPGKAPKLLIYSASNLETGVPSRFSGSGSGTDFTLTISSLLPEDFATYYCQQVVWRPFTFGQGTKVEIKRV[human IgG1 Fc with changes left out]

Standardized EC50, L929 neutralization assay (5-point) (recombinant human TNFα): 11.5 µg/mL
B13: TNFα dAb Fc variant T22H (Fc fusion, name in Kabat numbering)
chain: DIQMTQSPSSLSASVGDRVTIHCRASQAIDSYLHWYQQKPGKAPKLLIYSASNLETGVPSRFSGSGSGTDFTLTISSLLPEDFATYYCQQVVWRPFTFGQGTKVEIKRV[human IgG1 Fc with changes left out]

Standardized EC50, L929 neutralization assay (5-point) (recombinant human TNFα): 1.69 µg/mL
B14: TNFα dAb Fc variant T20H (Fc fusion, name in Kabat numbering)
chain: DIQMTQSPSSLSASVGDRVHITCRASQAIDSYLHWYQQKPGKAPKLLIYSASNLETGVPSRFSGSGSGTDFTLTISSLLPEDFATYYCQQVVWRPFTFGQGTKVEIKRV[human IgG1 Fc with changes left out]

Standardized EC50, L929 neutralization assay (5-point) (recombinant human TNFα): 6.96 µg/mL
B15: TNFα dAb Fc variant T20Y (Fc fusion, name in Kabat numbering)
chain: DIQMTQSPSSLSASVGDRVYITCRASQAIDSYLHWYQQKPGKAPKLLIYSASNLETGVPSRFSGSGSGTDFTLTISSLLPEDFATYYCQQVVWRPFTFGQGTKVEIKRV[human IgG1 Fc with changes left out]

Standardized EC50, L929 neutralization assay (5-point) (recombinant human TNFα): 1.43 µg/mL
B16: TNFα dAb Fc variant T22D (Fc fusion, name in Kabat numbering)
chain: DIQMTQSPSSLSASVGDRVTIDCRASQAIDSYLHWYQQKPGKAPKLLIYSASNLETGVPSRFSGSGSGTDFTLTISSLLPEDFATYYCQQVVWRPFTFGQGTKVEIKRV[human IgG1 Fc with changes left out]

Standardized EC50, L929 neutralization assay (5-point) (recombinant human TNFα): 1.13 µg/mL
B17: TNFα dAb Fc variant D1H (Fc fusion, name in Kabat numbering)
chain: HIQMTQSPSSLSASVGDRVTITCRASQAIDSYLHWYQQKPGKAPKLLIYSASNLETGVPSRFSGSGSGTDFTLTISSLLPEDFATYYCQQVVWRPFTFGQGTKVEIKRV[human IgG1 Fc with changes left out]

Standardized EC50, L929 neutralization assay (5-point) (recombinant human TNFα): 2.85 µg/mL
B18: TNFα dAb Fc variant T22Y (Fc fusion, name in Kabat numbering)
chain: DIQMTQSPSSLSASVGDRVTIYCRASQAIDSYLHWYQQKPGKAPKLLIYSASNLETGVPSRFSGSGSGTDFTLTISSLLPEDFATYYCQQVVWRPFTFGQGTKVEIKRV[human IgG1 Fc with changes left out]

Standardized EC50, L929 neutralization assay (5-point) (recombinant human TNFα): 2.26 µg/mL
B19: TNFα dAb Fc variant T22Q (Fc fusion, name in Kabat numbering)
chain: DIQMTQSPSSLSASVGDRVTIQCRASQAIDSYLHWYQQKPGKAPKLLIYSASNLETGVPSRFSGSGSGTDFTLTISSLLPEDFATYYCQQVVWRPFTFGQGTKVEIKRV[human IgG1 Fc with changes left out]

Standardized EC50, L929 neutralization assay (5-point) (recombinant human TNFα): 0.556 µg/mL
B20: TNFα dAb Fc variant D1A (Fc fusion, name in Kabat numbering)
chain: AIQMTQSPSSLSASVGDRVTITCRASQAIDSYLHWYQQKPGKAPKLLIYSASNLETGVPSRFSGSGSGTDFTLTISSLLPEDFATYYCQQVVWRPFTFGQGTKVEIKRV[human IgG1 Fc with changes left out]

Standardized EC50, L929 neutralization assay (5-point) (recombinant human TNFα): 2.79 µg/mL
B21: TNFα dAb Fc variant I2S (Fc fusion, name in Kabat numbering)
chain: DSQMTQSPSSLSASVGDRVTITCRASQAIDSYLHWYQQKPGKAPKLLIYSASNLETGVPSRFSGSGSGTDFTLTISSLLPEDFATYYCQQVVWRPFTFGQGTKVEIKRV[human IgG1 Fc with changes left out]

Standardized EC50, L929 neutralization assay (5-point) (recombinant human TNFα): 0.725 µg/mL
B22: TNFα dAb Fc variant T22A (Fc fusion, name in Kabat numbering)
chain: DIQMTQSPSSLSASVGDRVTIACRASQAIDSYLHWYQQKPGKAPKLLIYSASNLETGVPSRFSGSGSGTDFTLTISSLLPEDFATYYCQQVVWRPFTFGQGTKVEIKRV[human IgG1 Fc with changes left out]

Standardized EC50, L929 neutralization assay (5-point) (recombinant human TNFα): 0.846 µg/mL
B23: TNFα dAb Fc variant D1S (Fc fusion, name in Kabat numbering)
chain: SIQMTQSPSSLSASVGDRVTITCRASQAIDSYLHWYQQKPGKAPKLLIYSASNLETGVPSRFSGSGSGTDFTLTISSLLPEDFATYYCQQVVWRPFTFGQGTKVEIKRV[human IgG1 Fc with changes left out]

Standardized EC50, L929 neutralization assay (5-point) (recombinant human TNFα): 3.22 µg/mL
B24: TNFα dAb Fc variant T20D (Fc fusion, name in Kabat numbering)
chain: DIQMTQSPSSLSASVGDRVDITCRASQAIDSYLHWYQQKPGKAPKLLIYSASNLETGVPSRFSGSGSGTDFTLTISSLLPEDFATYYCQQVVWRPFTFGQGTKVEIKRV[human IgG1 Fc with changes left out]

Standardized EC50, L929 neutralization assay (5-point) (recombinant human TNFα): 1.1 µg/mL
B25: TNFα dAb Fc variant D1Q (Fc fusion, name in Kabat numbering)
chain: QIQMTQSPSSLSASVGDRVTITCRASQAIDSYLHWYQQKPGKAPKLLIYSASNLETGVPSRFSGSGSGTDFTLTISSLLPEDFATYYCQQVVWRPFTFGQGTKVEIKRV[human IgG1 Fc with changes left out]

A450 (AU) [1]: 0.18 AU
B26: TNFα dAb Fc variant Y86S (Fc fusion, name in Kabat numbering)
chain: DIQMTQSPSSLSASVGDRVTITCRASQAIDSYLHWYQQKPGKAPKLLIYSASNLETGVPSRFSGSGSGTDFTLTISSLLPEDFATSYCQQVVWRPFTFGQGTKVEIKRV[human IgG1 Fc with changes left out]

A450 (AU) [1]: 0.205 AU
B27: TNFα dAb Fc variant Y86L (Fc fusion, name in Kabat numbering)
chain: DIQMTQSPSSLSASVGDRVTITCRASQAIDSYLHWYQQKPGKAPKLLIYSASNLETGVPSRFSGSGSGTDFTLTISSLLPEDFATLYCQQVVWRPFTFGQGTKVEIKRV[human IgG1 Fc with changes left out]

A450 (AU) [1]: 0.247 AU
B28: TNFα dAb Fc variant V58Y (Fc fusion, name in Kabat numbering)
chain: DIQMTQSPSSLSASVGDRVTITCRASQAIDSYLHWYQQKPGKAPKLLIYSASNLETGYPSRFSGSGSGTDFTLTISSLLPEDFATYYCQQVVWRPFTFGQGTKVEIKRV[human IgG1 Fc with changes left out]

A450 (AU) [1]: 0.204 AU
B29: TNFα dAb Fc variant Y86Q (Fc fusion, name in Kabat numbering)
chain: DIQMTQSPSSLSASVGDRVTITCRASQAIDSYLHWYQQKPGKAPKLLIYSASNLETGVPSRFSGSGSGTDFTLTISSLLPEDFATQYCQQVVWRPFTFGQGTKVEIKRV[human IgG1 Fc with changes left out]

From patent US20110319597A1 (CAPHALON AUSTRALIA, published 2011)
